From PubChem BioAssay AID1030 (National Center for Advancing Translational Sciences (NCATS), 2008)
The whole screen tested about 220,000 compounds, of which about 16,000 (7.3%) were called active. Inconclusive results, whose numbers are uncertain, are shown with a selection of clear calls. The call rests on the fitted dose curve; in most records, active means well fitted inhibition curve with a large enough effect (not every such curve was filed as active); inconclusive means small, poorly fitted or top-dose-only effect, or another doubt; inactive means no such curve, though single readings can be large or run the other way. Where the call is inconclusive, the potency comes from a doubtful curve fit.

The molecules below were run against Aldehyde dehydrogenase 1A1 (Homo sapiens) (UniProt P00352) (assay: qHTS Assay for Inhibitors of Aldehyde Dehydrogenase 1 (ALDH1A1)). Conditions: Purified ALDH1A1, NADH fluorescence, propionaldehyde substrate; series mostly up to 75.3 µM.
Potency means the concentration at half of the fitted maximal effect; tags describe the fitted curve by direction and shape.

Chain of UniProt P00352 (P00352 whole entry, looked up): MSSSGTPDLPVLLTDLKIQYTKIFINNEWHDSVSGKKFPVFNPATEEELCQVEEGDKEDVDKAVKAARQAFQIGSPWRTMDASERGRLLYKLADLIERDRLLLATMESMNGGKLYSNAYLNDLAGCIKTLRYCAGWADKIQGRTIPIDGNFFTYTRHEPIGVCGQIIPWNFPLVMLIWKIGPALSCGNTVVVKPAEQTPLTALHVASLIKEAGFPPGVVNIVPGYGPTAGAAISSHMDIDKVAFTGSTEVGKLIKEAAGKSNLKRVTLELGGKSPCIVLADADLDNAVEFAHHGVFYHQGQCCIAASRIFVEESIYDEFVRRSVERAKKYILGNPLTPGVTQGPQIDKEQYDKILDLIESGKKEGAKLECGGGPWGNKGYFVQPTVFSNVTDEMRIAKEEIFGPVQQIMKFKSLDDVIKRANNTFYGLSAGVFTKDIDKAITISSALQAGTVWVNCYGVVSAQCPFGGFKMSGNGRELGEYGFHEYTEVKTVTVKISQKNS

Potency, active:
CCOc1ccc(NC(=O)c2ccc(NCC(=O)N3CCCCCC3)cc2)cc1 6.31 µM
Cc1cccc(NC(=O)CSc2nc3[nH]ncc3c(=O)n2-c2ccccc2)c1 4.47 µM
C=C(C)C1CCC(C)=C1CC(C)(C)/C=N\n1cnnc1 (configuration not stated) 22.4 µM
CCc1c(C)sc(NC(=O)c2cc(C)no2)c1C#N 12.6 µM
CC1CCN(S(=O)(=O)c2cnc(Cl)c(Br)c2)CC1 0.126 µM
Cc1ccc2nc(SCC(=O)N3c4ccccc4CC3C)c(C)cc2c1 (configuration not stated) 25.1 µM
S=C(Cc1cccnc1)N1CCOCC1 12.6 µM
CSC1=N/C(=C\c2ccccc2Cl)C(=O)N1N(C)C 17.8 µM

Potency, inconclusive:
O=C(CSc1nccc(-c2cccs2)n1)Nc1ccc(Cl)cc1 39.8 µM [inhibitor, single point]
COc1ccc(CC(=O)OCC(=O)Nc2ccc(Cl)c(S(=O)(=O)N(C)C)c2)cc1 35.5 µM [inhibitor, single point]
COc1ccc(CCNC(=O)C2CCN(c3nccc(C)n3)CC2)cc1 39.8 µM [inhibitor, single point]
Nc1cccc(-c2nc3ccccc3s2)c1 39.8 µM [inhibitor, single point]
COC(=O)c1ccccc1NC(=O)CSc1nnc(C(C)NC(=O)c2ccc(Cl)cc2Cl)n1C (configuration not stated) 39.8 µM [inhibitor, single point]
CC(C)(SC(=S)N1CCCCCC1)C(=O)O 35.5 µM [inhibitor, partial curve]
CCSc1ncnc2sc(C)c(C)c12 17.8 µM [inhibitor, single point]
O=C(COC(=O)c1cccc2ccccc12)Nc1ncc(C(F)(F)F)cc1Cl 28.2 µM [inhibitor, partial curve]
CC(C)c1nnc(NC(=O)CCC(=O)N2CCN(C3c4ccccc4-c4ccccc43)CC2)s1 20 µM [inhibitor, single point]
CCc1c(OC(C)=O)c2ccccc2n(C)c1=O 39.8 µM [inhibitor, single point]
Cc1ccccc1NC(=O)CC1SC(=Nc2ccc(O)cc2)NC1=O (configuration not stated) 1.12 µM [inhibitor, full curve]
COc1ccc(-c2c3c(=O)n(C)c(=O)n(C)c3cn2-c2ccccc2)cc1 22.4 µM [inhibitor, partial curve]
CCN(CCCNC(=O)c1cn(CC)c2ccc(S(=O)(=O)N(C)C)cc2c1=O)c1cccc(C)c1 39.8 µM [inhibitor, single point]
COCCNC(=O)[C@H](C)/C=C/C(NC(=O)OCc1ccccc1)c1ccc(C(=O)OC)cc1 (some centres not stated) 39.8 µM [inhibitor, single point]
CCC1CCC/C1=N\NC(=O)c1cc(C)[nH]n1 (configuration not stated) 17.8 µM [inhibitor, partial curve]
Cc1ccc(-c2cc(C(=O)Nc3nn[nH]n3)c3ccccc3n2)c(C)c1 22.4 µM [inhibitor, partial curve]
Cc1ccc(C(NC(=O)/C=C\c2ccc3c(c2)OCO3)C(=O)Nc2ccc3c(c2)OCO3)cc1 (configuration not stated) 17.8 µM [inhibitor, partial curve]
COCCCNc1nc2nonc2nc1N1C[C@H]2CC[C@H]1C2 39.8 µM [inhibitor, single point]
Cc1ccc(-c2nc(C)sc2CC(=O)NCc2ccco2)cc1 39.8 µM [inhibitor, single point]
C/C=C(/C)C(=O)O[C@@H]1[C@H](OC(=O)C=C(C)C)c2c(ccc3ccc(=O)oc23)OC1(C)C 25.1 µM [inhibitor, partial curve]
COc1ccccc1N1C[C@@H]2C[C@@H](c3ccco3)N3CCC[C@@]23C1=O 20 µM [inhibitor, single point]
Cc1cc(OCc2ccccc2)ccc1/C(O)=C1/C(=O)C(=O)N(Cc2cccnc2)C1c1ccncc1 (configuration not stated) 35.5 µM [inhibitor, single point]
CCCC(O)(CCC)C(=O)NN(C(=O)OC)c1ccccc1 25.1 µM [inhibitor, single point]
CCOCCCNC(=S)N1CCC(NC(=O)C23CC4CC(CC(C4)C2)C3)CC1 25.1 µM [inhibitor, single point]
Cc1cc(N2CCOCC2)ccc1/C=C1\NC(=O)N(Cc2ccccc2)C1=O 1.41 µM [inhibitor, full curve]
CCOc1cccc(C(=O)Nc2ccc(N(CC)CC)cc2)c1 22.4 µM [inhibitor, single point]

Potency, inactive:
FC(F)(F)c1cc(NC(=S)Nc2ccc3cc4ccccc4cc3c2)cc(C(F)(F)F)c1
CCN1CCc2c(sc(NC(=O)Nc3ccc(Cl)c(Cl)c3)c2C(N)=O)C1
O=C(OC[C@@H]1O[C@@](O)(COC(=O)c2cccnc2)[C@H](OC(=O)c2cccnc2)[C@H]1OC(=O)c1cccnc1)c1cccnc1
COC(=O)NNC(=O)CCCOc1ccc(Cl)cc1Cl
COc1ccc(-c2csc(=Nc3ccccc3)n2CCO)cc1
COc1ccccc1N1CCN(CCCNc2cc(=O)n(C)c(=O)n2C)CC1
NS(=O)(=O)c1ccc(N=Nc2c(O)c(C(=O)O)cc3ccccc23)cc1
COc1ccc(-c2nc(CN(Cc3cnn(C)c3)C(C)C)c(C)o2)c(OC)c1
COc1ccc(N2CCN(CC(=O)NC(=O)NC(C)(C)C)CC2)cc1
Cc1c(Br)cc(C(=O)OC2CCN(C)CC2)c(C)c1C
O=C(Cc1c[nH]c2ccccc12)Nc1ccccc1N1CCOCC1
Cc1ccc2oc(=O)c3c4cc(O)c(O)cc4oc3c2c1
CCCCNC(=O)c1ccccc1NC(=O)c1ccc2c(c1)OCO2
